Data reported in paper PMC4336329 (PLoS ONE, 2015).
The whole screen tested about 310,000 compounds, of which about 2,200 (0.71%) showed an effect of 50% or more. Effects have a minus sign here. The list shows a part of the results.

Target: human ether-à-go-go-related gene (hERG) potassium channel (human, UniProt Q12809)
Experiment: primary screen, population patch clamp on CHO cells stably expressing hERG

human ether-à-go-go-related gene (hERG) potassium channel, sequence (Q12809 whole entry, looked up): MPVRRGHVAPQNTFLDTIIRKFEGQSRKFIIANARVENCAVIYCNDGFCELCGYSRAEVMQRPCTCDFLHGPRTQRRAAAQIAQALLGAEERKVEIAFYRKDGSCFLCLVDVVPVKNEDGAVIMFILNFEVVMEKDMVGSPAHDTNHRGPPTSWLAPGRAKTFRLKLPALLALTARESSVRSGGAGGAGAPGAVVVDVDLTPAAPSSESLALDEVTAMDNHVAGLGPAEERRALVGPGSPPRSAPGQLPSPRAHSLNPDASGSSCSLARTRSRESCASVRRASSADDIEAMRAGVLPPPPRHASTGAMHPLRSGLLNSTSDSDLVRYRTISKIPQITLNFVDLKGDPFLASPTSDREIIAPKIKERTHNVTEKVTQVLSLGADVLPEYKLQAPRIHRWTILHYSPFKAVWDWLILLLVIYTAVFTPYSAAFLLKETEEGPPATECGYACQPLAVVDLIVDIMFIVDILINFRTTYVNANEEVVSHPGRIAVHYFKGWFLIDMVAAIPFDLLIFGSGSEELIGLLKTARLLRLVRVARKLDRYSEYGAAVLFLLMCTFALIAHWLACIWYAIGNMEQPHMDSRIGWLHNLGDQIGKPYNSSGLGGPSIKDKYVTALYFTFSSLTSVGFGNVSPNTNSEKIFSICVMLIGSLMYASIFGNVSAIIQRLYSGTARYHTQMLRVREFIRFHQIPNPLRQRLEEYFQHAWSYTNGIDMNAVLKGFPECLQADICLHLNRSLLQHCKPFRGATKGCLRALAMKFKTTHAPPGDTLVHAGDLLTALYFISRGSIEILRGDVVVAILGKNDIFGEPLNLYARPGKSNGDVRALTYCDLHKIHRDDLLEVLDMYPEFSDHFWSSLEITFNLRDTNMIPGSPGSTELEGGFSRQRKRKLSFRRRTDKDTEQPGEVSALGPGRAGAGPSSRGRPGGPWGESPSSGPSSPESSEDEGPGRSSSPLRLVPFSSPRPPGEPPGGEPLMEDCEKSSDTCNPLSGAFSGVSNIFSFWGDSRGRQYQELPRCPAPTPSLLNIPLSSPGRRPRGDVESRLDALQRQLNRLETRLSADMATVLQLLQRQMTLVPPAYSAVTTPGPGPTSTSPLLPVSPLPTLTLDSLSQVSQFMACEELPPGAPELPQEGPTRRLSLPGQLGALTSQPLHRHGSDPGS

Compound | hERG current change (%, negative = inhibition) at 1uM [%]
N#Cc1c(NCc2ccccc2)ccnc1Cl | 4.74
CCCc1cc(=O)[nH]c(SCC(=O)c2c(N)n(CC(C)C)c(=O)n(C)c2=O)n1 | 0.555
NC(=O)c1ccc(-n2nnnc2SCC(=O)c2ccc(O)c(O)c2)cc1 | 8.71
c1ccc2c3c(c(CN4CCCC4)cc2c1)COC3 | 7.13
C/C(N)=C(/C#N)C(=O)CSc1cc(C)c2cc(C)cc(C)c2n1 | -1.21
COC(=O)/C=C/C(=O)N1CCN(c2ccccc2C)CC1 | 11.3
COc1cc(/C=N/Nc2ccc([N+](=O)[O-])cc2S(=O)(=O)N2CCOCC2)cc(OC)c1OC | 10.2
Cc1ccccc1-c1nc2sc(-c3ccccc3)cc2c(=O)o1 | 20.9
Cc1ccc(-n2nc(CC#N)c(C#N)c2N)cc1 | 6.71
Cc1ccnn1CC(=O)N/N=C/c1cccs1 | -1.87
CC(OC(=O)c1ccc(Cl)nc1)C(=O)Nc1ccc(S(=O)(=O)N2CCCC2)cc1 (stereo not drawn) | -7.44
CCC1(C)Cc2c(sc3nnn(Cc4ccccc4Cl)c(=O)c23)CO1 (stereo not drawn) | 18.3
CCOC(=O)C1(CCOc2ccccc2)CCN(Cc2nccn2CC)CC1 | -5.37
Cc1c(Cl)cccc1NC(=O)c1cccnc1 | 13.6
CC(CN1CCCCC1)OC(=O)C(C)(c1ccccc1)c1ccccc1.Cl (stereo not drawn) | -0.115
COC(=O)C1=C(C)N(c2ccc(C)c(C)c2)/C(=C/c2ccc(O)cc2)C1=O | 10.4
COc1cccc(NC(=O)C2CCN(S(=O)(=O)c3ccc4c(c3)OCCO4)CC2)c1 | 20.4
O=C(CCn1ccc2cc(S(=O)(=O)N3CCCC3)ccc21)NCc1ccccc1 | 12.7
Cc1cc(SCC(=O)N(C)c2c(N)n(Cc3ccccc3)c(=O)[nH]c2=O)nc2ccccc12 | 13.6
Cc1ccc(NC(=O)N2Cc3ccccc3CC2C(=O)NC(C)(C)C)cc1 (stereo not drawn) | 6.94
O=C(N/C(=C/c1cccc(Br)c1)c1nc(=S)[nH][nH]1)c1ccccc1 | 6.77
O=C(O)CN=C(NS(=O)(=O)c1ccc(Cl)cc1)c1ccc(F)cc1 | 12.5
Cc1ccc(C)c(S(=O)(=O)N2CC(=O)N(CCc3ccccc3)C(=O)C2)c1 | 5.37
Cc1ccc(CC2CC(=O)N(c3nc4ccccc4s3)C2=O)cc1 (stereo not drawn) | 14.5
